Out of some 110,000 compounds screened, about 230 (0.21%) showed an effect of 50% or more. This is one part of the list.
Target: DPAP1 (Plasmodium falciparum, UniProt Q8IIJ9)
Assay: primary screen, percent inhibition; read by cleavage of a fluorogenic dipeptide substrate; higher = more effect of the substance
Set-up: species or system P. falciparum D10 trophozoite lysates; single well
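Note: 30 min substrate incubation versus DMSO and 10 µM JCP410 controls.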

DPAP1, sequence (Q8IIJ9 whole entry, looked up): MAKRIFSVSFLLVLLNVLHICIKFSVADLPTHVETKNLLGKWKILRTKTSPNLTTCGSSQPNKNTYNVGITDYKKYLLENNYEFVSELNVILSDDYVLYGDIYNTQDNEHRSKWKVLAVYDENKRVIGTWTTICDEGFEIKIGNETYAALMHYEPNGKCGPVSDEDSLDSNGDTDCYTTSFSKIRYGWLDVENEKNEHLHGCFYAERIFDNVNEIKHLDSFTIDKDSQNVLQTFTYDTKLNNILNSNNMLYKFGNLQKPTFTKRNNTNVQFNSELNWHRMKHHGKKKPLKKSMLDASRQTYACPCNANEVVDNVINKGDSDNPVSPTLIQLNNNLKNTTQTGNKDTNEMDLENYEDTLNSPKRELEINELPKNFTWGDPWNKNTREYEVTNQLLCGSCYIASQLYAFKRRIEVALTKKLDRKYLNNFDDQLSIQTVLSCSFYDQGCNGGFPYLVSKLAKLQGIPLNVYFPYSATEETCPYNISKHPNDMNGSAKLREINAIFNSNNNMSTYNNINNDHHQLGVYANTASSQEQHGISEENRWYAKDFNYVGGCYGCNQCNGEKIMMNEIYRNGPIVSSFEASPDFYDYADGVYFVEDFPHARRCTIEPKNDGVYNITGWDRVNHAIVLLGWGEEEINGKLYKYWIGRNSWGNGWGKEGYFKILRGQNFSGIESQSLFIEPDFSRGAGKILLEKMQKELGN

SMILES | % Inhibition @ 10 uM [%]
CCCCSc1nnc2c(n1)-c1cccc3cccc-2c13 | 9.51
Cc1c2c(cc3c4c(c(=O)oc13)CCC4)CN(Cc1ccccc1)CO2 | -2.57
CN1CCC(N(C)Cc2ccc([N+](=O)[O-])s2)CC1 | -3.71
Cc1ccc(-c2ncnc3c(C#N)c4ccccn4c23)cc1 | -4.19
O=C(O)c1cc2ccccc2c(=O)s1 | -3.76
COc1ccc(/C=C2/C(=O)N(c3ccc([N+](=O)[O-])cc3)N=C2C)c(OC)c1 | -0.999
CCOC(=O)N1CCN(C(=O)c2cc(S(=O)(=O)N3CCCC3)c[nH]2)CC1 | -7.19
COc1cc(C2C3=C(O)CC(C)(C)CC3=NC3=C2C(=O)CC(C)(C)C3)cc(Br)c1OC (stereo not shown) | 3.96
CC1CC(C)CN(C(=O)c2ccc(CNS(=O)(=O)c3ccc(F)cc3)cc2)C1 (stereo not shown) | -0.971
O=C(CCC(=O)n1ncc2ccccc21)N1CCCCC1 | 5.42
COc1ccc(C(=O)NCCSCc2ccco2)cc1OC | -3.14
CC(C)CC(C(=O)NCC#N)c1ccc(NC(=O)Nc2ccncc2)cc1 (stereo not shown) | 2.22
CCS(=O)(=O)N1CCC2(CC1)OC(=O)C(C)=C2C(=O)N1CCN(C2CCCCC2)CC1 | -2.68
COc1cccc(-c2noc(C(=O)NCCCn3ccnc3)n2)c1 | 4.58
CCCCNC(=O)Nc1ccccc1C(=O)Nc1ccc(OC)cc1 | -1.11
CCOc1ccccc1/C=C1/N=C(c2cccc(Cl)c2Cl)OC1=O | -0.77
O=C(O)c1ccc(N2C(=O)C3CCCCC3C2=O)cc1 (stereo not shown) | -1.22
CN(Cc1ccccc1)C(=O)NCc1noc2ccccc12 | -4.04
COc1ccc(-c2nc(CS(=O)CC(=O)N3CCN(C)CC3)c(C)o2)cc1 (stereo not shown) | -4.71
COc1ccc(-c2nnc3ccc(SCC(=O)Nc4nnc(C)s4)nn23)cc1OC | -5.05
CC(C)(C)NC(=O)c1ccccc1 | 4.54
COc1ccc(CC(=O)N2CCN(Cc3noc(CCC(=O)N4CCOCC4)n3)CC2)cc1 | 3.8
CSc1nc(-c2ccccc2)nc(Nc2nc(C)cc(C)n2)c1C(C)=O | -1.82
Cc1ccc(C(=O)Nc2cccnc2)cc1C | 2.44
CC1CC(C)CN(C(=O)CCCc2nnc3n(C)c(=O)c4sccc4n23)C1 (stereo not shown) | -0.326

SMILES | % Inhibition @ 10 uM [%]
Cc1ccc2c(c1)C1(C(=O)N2)C(C#N)=C(N)OC2=C1C(=O)CCC2 (stereo not shown) | -0.725
COc1c(Cl)cc(Cl)cc1C1C(C#N)=C(N)Oc2[nH]nc(-c3cccs3)c21 (stereo not shown) | -6.37
CCC1CCCCN1C(=O)Cn1c(SCc2ccccc2C)nc2ccncc21 (stereo not shown) | 5.73
CCOC(=O)c1oc2ccc(S(=O)(=O)Nc3noc4ccccc34)cc2c1C | 3.77
COc1ccc2[nH]c3c(=O)n(CC(=O)NC4CCCCC4)c(=S)[nH]c3c2c1 | -7.65
O=C(N/C(=C\c1cccc(F)c1)C(=O)N1CCOCC1)c1ccccc1Br | -3.06
CC(=O)Nc1nonc1N1C(=N)S/C(=C\c2ccc(-c3cccc(Cl)c3Cl)o2)C1=O | -2.85
CC1CCN(c2ccc3nonc3c2[N+](=O)[O-])CC1 | 0.827
CC1CCCC(NC(=O)c2cccc3c2SCCC3=O)C1C (stereo not shown) | -1.08
COc1ccc(C(=O)Nc2ccc(S(N)(=O)=O)cc2)cc1 | -1.28
COc1cccc(OCCNC(=O)c2ccccc2Sc2ccccc2C#N)c1 | 0.0719
CC1CCCC(Nc2cnn(C34CC5CC(CC(C5)C3C(=O)O)C4)c(=O)c2Cl)C1C (stereo not shown) | 1.15
CCc1ccc(C(=O)c2cc3ccc(O)cc3oc2=O)cc1 | 2.12
C=CCNC(=O)c1cc2c(=O)n3cc(C)ccc3nc2n(CCN2CCOCC2)c1=N | -1.47
O=C1C(SCc2ccccc2)=C/C(=N/S(=O)(=O)c2cccs2)c2ccccc21 | 14.7
CCc1ccc(-n2nnc(-c3nc(-c4ccc(OC)cc4)no3)c2N)cc1 | -3.3
COc1ccc(CCNC(=O)CCCCCNc2nc(S)nc3ccccc23)cc1OC | 1.42
COc1cc(C2CC(=O)OC3=C2C(=O)c2ccccc2C3=O)ccc1O (stereo not shown) | 3.47
Cc1ccc(S(=O)(=O)CC(C)N2CCCCC2)c(S(=O)(=O)CC(C)N2CCCCC2)c1 (stereo not shown) | -6.95
Cc1nn(-c2ccc(Cl)cc2)c(O)c1C=C1C(=O)NC(=O)NC1=O | 6.5
CCOc1ccc(/C=C(\NC(=O)c2ccccc2)C(=O)N2CCN(C)CC2)cc1 | -3.19
CS(=O)(=O)N(CC(=O)N1CCN(c2cccc(Cl)c2)CC1)c1ccc(F)cc1 | 2.49
O=C(c1ccc2c(c1)OCO2)N(Cc1nc(-c2ccccc2)no1)C1CCCCC1 | 2.14
O=C(c1cc2nc(-c3ccc4c(c3)OCO4)cc(C(F)(F)F)n2n1)N1CCCCC1c1cccnc1 (stereo not shown) | 0.9
Cc1ccc(-c2nnc3sc(-c4cccnc4)nn23)cc1 | -0.666

SMILES | % Inhibition @ 10 uM [%]
Cc1ccccc1-n1nc2c(c1NC(=O)C13CC4CC(CC(C4)C1)C3)CS(=O)(=O)C2 | -5.15
CC(C)N(Cc1ccccc1)C(=O)c1cccc(Cl)c1 | -2.21
COc1ccc(Cl)cc1NC(=O)c1c(-c2ccccc2)noc1C | -4.14
CCOCCc1nnc(NC(=O)c2cn(-c3ccccc3)nc2-c2ccccc2)s1 | 0.655
Cc1sc2ncn(CC(=O)NCCC3=CCCCC3)c(=O)c2c1S(=O)(=O)N1CCCCC1 | 11.4
COC(=O)/C=C1\SC(NC(=O)c2ccc(Cl)cc2)=NC1=O | 1.91
OC(CN1CCCCCC1)c1ccccc1 (stereo not shown) | 0.132
Oc1cc2cc(O)nc(O)c2c(O)n1 | 6.24
O=C1CC(c2ccc(F)cc2)c2cc3c(cc2N1)OCO3 (stereo not shown) | 2.17
CCCOC(=O)CNc1nnc(O)nc1O | 5.02
CC(C)(C)OC(=O)N1CCC(C(=O)N[C@@H](Cc2ccc3ccccc3c2)C(=O)N[C@@H](CCCCNC(=O)OCc2ccccc2)C(=O)CO)CC1 | 2.22
O=C1SCCC1NS(=O)(=O)c1ccc(Cl)cc1 (stereo not shown) | 5.43
O=C(NC1(C(F)(F)F)C(=O)Nc2c1c(=O)[nH]c(=O)n2-c1ccc(F)cc1)c1ccc(F)cc1 (stereo not shown) | -3.34
O=C(CSC1CC(=O)N(c2ccc(Br)cc2)C1=O)Nc1cccc(F)c1 (stereo not shown) | 5.39
O=C(CN(c1cccc(Br)c1)S(=O)(=O)c1ccccc1)Nc1cccnc1 | -3.53
Cc1nc2nc(CNC(=O)OC(C)(C)C)nn2c(C)c1CCC(=O)NC1CCCCC1 | -0.447
Cc1nnc(SCC(=O)N2CCCCCC2)c2nn(-c3ccccc3)c(C)c12 | -8.68
COc1cc(C(=O)n2cnc3ccccc32)cc(OC)c1OC | -0.48
COCc1[nH]nc2c1C1(CCN(C(=O)OC(C)(C)C)CC1)C(C#N)=C(N)O2 | 5.87
CCOc1ccccc1NC1=C(Cl)C(=O)N(c2ccc(OC)cc2)C1=O | -2.77
COC(=O)c1sccc1NC(=O)c1noc2c1CCCC2 | -8.16
Cc1c(Cl)cccc1-n1nnc(-c2nc(-c3ccccc3)no2)c1N | 3.22
O=C(NCCc1ccccc1)c1ccco1 | -1.98
O=C(Nc1ccc(F)cc1)c1cccc(C(=O)Nc2ccc(F)cc2)c1 | 5.06
O=C(O)CCCCCN1C(=O)C2C3c4ccccc4C(c4ccccc43)C2C1=O (stereo not shown) | -4.76

SMILES | % Inhibition @ 10 uM [%]
CC1CCCCC1NC(=O)C1CCCN(S(C)(=O)=O)C1 (stereo not shown) | -2.99
COc1cccc(C(=O)Nc2sc3c(c2C(N)=O)CCCCCC3)c1 | -5.84
Cc1oc(-c2ccccc2F)nc1CS(=O)CC(=O)NCc1cccnc1 (stereo not shown) | -1.05
COc1ccccc1C1C(C#N)=C(N)Oc2cc(N)ccc21 (stereo not shown) | -2
Cc1oc(-c2cccc(Cl)c2)nc1CN1CCCC(C(=O)NC(C)C)C1 (stereo not shown) | 2.37
O=C(/C=C/c1ccc2c(c1)OCO2)/C=C/c1ccc2c(c1)OCO2 | -3.74
N#CC1=C(N)Oc2c(oc(CO)cc2=O)C1c1ccccc1Br (stereo not shown) | -2.77
COc1ccc(C(=O)O)cc1S(=O)(=O)N1CCCCCC1 | -1.41
COc1cc(C2NC(C(=O)O)Cc3c2[nH]c2ccccc32)cc(OC)c1OC (stereo not shown) | 1.29
O=C(Nc1ccccc1C(=O)NCCCCO)c1ccc(Cl)cc1Cl | 18.3
COc1ccc(-c2nc(C(Cl)(Cl)Cl)nc(C(Cl)(Cl)Cl)n2)cc1 | 5.98
Cc1cc(C)c2nc(N3CCCC(C(=O)N4CCN(c5ncccn5)CC4)C3)sc2c1 (stereo not shown) | 6.46
O=C(COc1cccc(Br)c1)Nc1ccc(N2CCCCC2)cc1 | -14.3
CC(C)(C)C1CCC(N2CCC(C(N)=O)CC2)CC1 (stereo not shown) | -1.82
O=C(CC1(c2ccccc2)C(=O)c2ccccc2C1=O)Nc1c(Cl)cccc1Cl | 1.7
Cc1cc(C)nc(NC(=O)c2ccc(Br)cc2)n1 | -3.45
CCOC(=O)C1=C(CSc2nc3c(cc2C#N)CCC3)OC(N)=C(C#N)C1c1cccs1 (stereo not shown) | 3.39
CC(C)NC(=O)c1cc2ccccc2oc1=O | -7.33
COc1ccc(-c2c(C)s/c(=N\C(=O)c3cccc(OC)c3)n2C)cc1 | 0.324
COc1ccc(C(=O)Nc2c3c(nn2-c2ccc(C)cc2)CS(=O)(=O)C3)cc1OC | 1.62
CCN(CC)CCn1c2ccccc2c2nnc(S)nc21 | 30.9
COc1ccccc1C(C1C(=O)CC(C)(C)CC1=O)C1C(=O)CC(C)(C)CC1=O | 1.2

— PMC6919601, “Identification of Plasmodium dipeptidyl aminopeptidase allosteric inhibitors by high throughput screening” (PLoS ONE, 2019)
